Laboratory results as given in US20230398181A1 (ACCELERON PHARMA, published 2023).

How the values were obtained:
Assay in all cases: cell-based or functional assay
Human TGFβ1 [1] = target: T1, Human TGFβ1 (human, UniProt P01137 partial chain)
Human TGFβ1 [2] = target: T1, Human TGFβ1; remark: listed apart in the source
Human TGFβ1 [3] = target: T1, Human TGFβ1; remark: listed apart in the source

T1 sequence (P01137 279-390 limits assumed): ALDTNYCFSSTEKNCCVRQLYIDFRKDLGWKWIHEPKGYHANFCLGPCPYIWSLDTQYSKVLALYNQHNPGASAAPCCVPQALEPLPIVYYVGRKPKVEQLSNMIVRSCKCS

Binder	IC50; pGL3(CAGA)12 luciferase reporter gene assay in A549 cells (Human TGFβ1 [1]) [nM]	IC50 (read off the curve); pGL3(CAGA)12 luciferase reporter gene assay in A549 cells, TGFb1 at 640 pg/mL (Human TGFβ1 [2]) [ng/mL]	IC50; pGL3(CAGA)12 luciferase reporter gene assay in A549 cells (Human TGFβ1 [3]) [nM]
hTβRII (G4S)6-hFc (Fc fusion) GATIPPHVQKSDVEMEAQKDEIICPSCNRTAHPLRHINNDMIVTDNNGAVKFPQLCKFCDVRFSTCDNQKSCMSNCSITSICEKPQEVCVAVWRKNDENITLETVCHDPKLPYHDFILEDAASPKCIMKEKKKPGETFFMCSCSSDECNDNIIFSEEYNTSNPDTGGGGSGGGGSGGGGSGGGGSGGGGSGGG[human IgG1 Fc and a few adjoining residues not written out]	0.02	~2	–
hTβRII-hFc (Fc fusion) GATIPPHVQKSDVEMEAQKDEIICPSCNRTAHPLRHINNDMIVTDNNGAVKFPQLCKFCDVRFSTCDNQKSCMSNCSITSICEKPQEVCVAVWRKNDENITLETVCHDPKLPYHDFILEDAASPKCIMKEKKKPGETFFMCSCSSDECNDNIIFSEEYNTSNPDTG[human IgG1 Fc and a few adjoining residues not written out]	–	–	7.69
hTβRII (G4S)3-hFc (Fc fusion) GATIPPHVQKSDVEMEAQKDEIICPSCNRTAHPLRHINNDMIVTDNNGAVKFPQLCKFCDVRFSTCDNQKSCMSNCSITSICEKPQEVCVAVWRKNDENITLETVCHDPKLPYHDFILEDAASPKCIMKEKKKPGETFFMCSCSSDECNDNIIFSEEYNTSNPDTGGGGSGGGGSGGG[human IgG1 Fc and a few adjoining residues not written out]	–	–	0.22

Further lines, results first:

IC50; pGL3(CAGA)12 luciferase reporter gene assay in A549 cells (Human TGFβ1 [1]) [nM]	IC50 (read off the curve); pGL3(CAGA)12 luciferase reporter gene assay in A549 cells, TGFb1 at 640 pg/mL (Human TGFβ1 [2]) [ng/mL]	IC50; pGL3(CAGA)12 luciferase reporter gene assay in A549 cells (Human TGFβ1 [3]) [nM]	Binder
–	–	1.12	hTβRII (G4S)2-hFc (Fc fusion) GATIPPHVQKSDVEMEAQKDEIICPSCNRTAHPLRHINNDMIVTDNNGAVKFPQLCKFCDVRFSTCDNQKSCMSNCSITSICEKPQEVCVAVWRKNDENITLETVCHDPKLPYHDFILEDAASPKCIMKEKKKPGETFFMCSCSSDECNDNIIFSEEYNTSNPDTGGGGSGGG[human IgG1 Fc and a few adjoining residues not written out]
–	–	0.07	hTβRII (G4S)4-hFc (Fc fusion) GATIPPHVQKSDVEMEAQKDEIICPSCNRTAHPLRHINNDMIVTDNNGAVKFPQLCKFCDVRFSTCDNQKSCMSNCSITSICEKPQEVCVAVWRKNDENITLETVCHDPKLPYHDFILEDAASPKCIMKEKKKPGETFFMCSCSSDECNDNIIFSEEYNTSNPDTGGGGSGGGGSGGGGSGGG[human IgG1 Fc and a few adjoining residues not written out]
–	–	5.67	hTβRII extended hinge-hFc (Fc fusion) GATIPPHVQKSDVEMEAQKDEIICPSCNRTAHPLRHINNDMIVTDNNGAVKFPQLCKFCDVRFSTCDNQKSCMSNCSITSICEKPQEVCVAVWRKNDENITLETVCHDPKLPYHDFILEDAASPKCIMKEKKKPGETFFMCSCSSDECNDNIIFSEEYNTSNPDTGGG[human IgG1 Fc not written out]
0.03	~3	–	hTβRII (G4S)5-hFc (Fc fusion) GATIPPHVQKSDVEMEAQKDEIICPSCNRTAHPLRHINNDMIVTDNNGAVKFPQLCKFCDVRFSTCDNQKSCMSNCSITSICEKPQEVCVAVWRKNDENITLETVCHDPKLPYHDFILEDAASPKCIMKEKKKPGETFFMCSCSSDECNDNIIFSEEYNTSNPDTGGGGSGGGGSGGGGSGGGGSGGG[human IgG1 Fc and a few adjoining residues not written out]

Read-outs that look alike come from different tables or passages of the source.
